# “And” between values parts separate entries of the source, which are not always exact repeats. Equal entries are not always repeated. Hit rate of the full screen: of about 410,000 compounds, about 7,200 (1.8%) were called active. The shares of active, inactive and inconclusive entries below differ from those in the screen. The call rests on the fitted dose curve; in most records, active means well fitted activation curve with a large enough effect; inconclusive means small, poorly fitted or top-dose-only effect, or another doubt; inactive means no such curve, though single readings can be large or run the other way. Potencies of inconclusive entries are doubtful fits and often do not repeat.
# Test: qHTS of TDP-43 Inhibitors; further: nearly all actives have a fitted effect of over 50% in size
# Conditions: TDP-43 expressing yeast growth rescue, BacTiter-Glo, 24 h; series mostly up to 46.1 µM
# Source text: The goal of this project is to identify new chemical probes capable of reversing the toxicity associated with TDP-43 which is associated with frontotemporal lobar degeneration and amyotrophic lateral sclerosis. These compounds will provide a complementary approach to deciphering the tangled mechanisms of toxicity and protection that we have uncovered through genome-wide genetic screens and are beginning to uncover in a large-scale proteomics analysis with mass spectroscopy.
# To this end, a miniaturized assay was developed to be screened against the Molecular Libraries Small Molecule Repository (MLSMR) to discover TDP-43 inhibitors. Please note that in the set-up this yeast-based assay compounds that inhibit as TDP-43, have a read-out as activators.
# NIH Chemical Genomics Center [NCGC]
# NIH Molecular Libraries Probe Centers Network [MLPCN]
# Assay Submitter (PI): Susan Lindquist, Whitehead Institute/MIT
# Dispense 2.5 microL yeast galactose medium per 1536-well plate, pin compound, dispense 2.5 microL TDP-43 expressing yeast in galactose medium at OD600=0.02 (pregrown in raffinose medium to mid-log phase) per well, incubate for 24 hr at 30 deg C, and cell growth will be measured using 5 microL of Bactiter/Glo reagent to entire plate and read using Luminescence Protocol in ViewLux.
# Potency means the concentration at half of the fitted maximal effect; tags describe the fitted curve by direction and shape.
row,SMILES,Potency
1,CC(C)(C)NC(=O)Cn1cnc2cc([N+](=O)[O-])ccc2c1=O,inactive
2,Cc1ccccc1CN1CCCN(CC(=O)Nc2ccc3c(c2)OCCO3)S1(=O)=O,"inconclusive: 3.55 µM [activator, partial curve]"
3,O=C(c1ccc(F)cc1)n1cc(C(=S)N2CCOCC2)c2ccccc21,"inconclusive: 3.55 µM [activator, partial curve]"
4,COc1c2ccoc2c(OC)c2oc(=O)ccc12,"inconclusive: 5.62 µM [activator, single point]"
5,COc1ccc(Nc2ncnc3sccc23)cc1,"inconclusive: 11.2 µM [activator, single point]"
6,O=C1c2ccccc2C(=O)N1CC(O)COc1cccc2ccccc12 (stereo not drawn),"inconclusive: 6.31 µM [activator, full curve]"
7,Cc1occc1C(=O)N1CCCC(CO)(Cc2ccc(F)cc2F)C1 (stereo not drawn),"inconclusive: 4.47 µM [activator, full curve, poor fit]"
8,O=[N+]([O-])c1ccc(CSc2ccccn2)cc1,"inconclusive: 8.91 µM [activator, partial curve]"
9,Cc1ccccc1NC(=O)Cc1nc(COC(=O)c2cccnc2Cl)cs1,"inconclusive: 11.2 µM [activator, partial curve, poor fit]"
10,Fc1ccc(/C=N/n2c(-c3cccs3)n[nH]c2=S)cc1,"inconclusive: 11.2 µM [activator, partial curve]"
11,Brc1ccccc1C1=Nn2c(nnc2-c2ccccc2)SC1,"inconclusive: 20 µM [activator, partial curve]"
12,CNC(=O)c1ccc(CSc2nc3ccncc3n2Cc2ccc(C)cc2)cc1,inactive
13,C=COC(=O)c1sc2nc(C)cc(C)c2c1N,"inconclusive: 1.41 µM [activator, full curve, poor fit]"
14,CCc1ccc(NC(=O)N2CCN(C(=O)c3nsc4ccccc34)CC2)cc1,"inconclusive: 25.1 µM [activator, partial curve]"
15,O=C(Nc1ccc(SC(F)F)cc1)c1ccc2nccnc2c1,"inconclusive: 17.8 µM [activator, single point]"
16,CCN(CC)C(=O)OCc1c(-c2ccccc2)ncc2ccccc12,inactive
17,O=C1Cc2ccccc2N1c1ccccc1,"inconclusive: 15.8 µM [activator, single point]"
18,O=c1c(-c2c(O)cc(O)c3c(=O)cc(-c4ccc(O)cc4)oc23)c(-c2ccc(O)cc2)oc2cc(O)cc(O)c12,"inconclusive: 15.8 µM [activator, single point]"
19,CCSc1nnc(-c2ccccc2SC)o1,"inconclusive: 7.08 µM [activator, single point]"
20,COCc1cc(C)nc2sc(C(=O)Nc3cc(C)ccc3F)c(N)c12,"inconclusive: 10 µM [activator, partial curve, poor fit]"
21,BrC(=C\c1ccccc1)/C=N/N1CCN(c2ccccn2)CC1,"inconclusive: 10 µM [activator, partial curve]"
22,O=C1C=C(c2ccc(CO)cc2)C[C@@H](c2ccc(F)cc2)C1,active: 35.5 µM
23,Clc1cccc(N2CCN(Cc3nnc(-c4ccccc4)o3)CC2)c1,active: 11.2 µM

row,SMILES,Potency
1,COc1cc(S(=O)(=O)NCc2ccc3c(c2)OCO3)ccc1F,"inconclusive: 17.8 µM [activator, partial curve]"
2,Cc1cc(-c2nc3ccccc3o2)c2ccccc2n1,"inconclusive: 4.47 µM [activator, full curve]"
3,O=[N+]([O-])c1ccc2c(c1)-c1ccccc1C2O (stereo not drawn),active: 11.2 µM
4,CCCn1c(-c2cccs2)nc2nc3ccccc3nc21,"inconclusive: 20 µM [activator, single point]"
5,O=C1C(Cl)=C(N2CCCC2)C(=O)N1c1ccccc1F,"inconclusive: 22.4 µM [activator, single point]"
6,O=C(O)/C(=C\c1ccc(-c2ccc(F)cc2)o1)c1ccccc1,"inconclusive: 22.4 µM [activator, partial curve]"
7,O=C(O)CCSc1ccc2ccccc2n1,active: 17.8 µM
8,Cc1ccccc1NC(=O)c1c(NC(=O)c2cccs2)sc2c1CCC(C)C2 (stereo not drawn),"inconclusive: 3.55 µM [activator, full curve, poor fit]"
9,C[N+]1=C(/C=C/Nc2ccccc2Cl)C(C)(C)c2ccccc21,inactive
10,N#Cc1nc(/C=C/c2ccc(F)cc2)oc1NC1CCCCC1,inactive
11,Cc1cccc(NC(=O)c2c(N)sc3c2CCC(C)C3)c1 (stereo not drawn),"inconclusive: 2 µM [activator, partial curve]"
12,CCC(=O)N1Cc2cc(C(=O)Nc3nccs3)nc(-c3cccc(-c4ccccc4OC)c3)c2[C@@H]1CCO,"inconclusive: 14.1 µM [activator, single point]"
13,O=C(O)CCc1ccc(-c2ccc(Br)cc2)n1Cc1ccco1,"inconclusive: 17.8 µM [activator, single point]"
14,O=C1OCCN1c1c(-c2ccccc2)c(-c2cccs2)nc2c(-c3ccccc3)cccc12,"inconclusive: 1.26 µM [activator, full curve]"
15,COc1cccc(NC(=O)Cn2c(=O)n(Cc3ccco3)c(=O)c3cc(OC)c(OC)cc32)c1,inactive
16,Clc1nccc(N2CCN(c3ccccc3Cl)CC2)n1,"inconclusive: 14.1 µM [activator, single point]"
17,O=C(Cn1ncc(N2CCCC2)c(Br)c1=O)c1ccc(Cl)cc1,"inconclusive: 14.1 µM [activator, partial curve]"
18,Cc1cc(C)nc(Nc2nc(C(N)Cc3ccc(Cl)cc3)cs2)n1 (stereo not drawn),"inconclusive: 1.41 µM [activator, partial curve]"
19,COc1ccc(C(=O)Nc2ccc([N+](=O)[O-])cn2)c(OC)c1,"inconclusive: 0.891 µM [activator, full curve, poor fit]"
20,COc1ccc2cnn(CCOc3cc(C)ccc3C(C)C)c(=O)c2c1OC,"inconclusive: 15.8 µM [activator, single point]"
21,Cc1cc(NC(=O)COC(=O)c2cc(S(=O)(=O)N(C)c3ccccc3)ccc2Cl)no1,"inconclusive: 25.1 µM [activator, single point]"
22,CN(C(=O)Nc1ccc(Cl)cc1)c1c2c(nn1C)CCCC2,inactive
23,CCOc1cccc(/C=C/C(=O)O)c1,"inconclusive: 17.8 µM [activator, single point]"

row,SMILES,Potency
1,Cc1ccc(S(=O)(=O)Nc2ccc(Nc3nccn4c(-c5ccc6ccccc6c5)cnc34)cc2)cc1,inactive
2,CSc1nc(N)n2nccc2n1,"inconclusive: 35.5 µM [activator, partial curve, poor fit]"
3,COC(=O)Nc1ccc2c(c1)Nc1ccccc1CC2,"inconclusive: 3.55 µM [activator, partial curve]"
4,Cc1cc(C)c(NC(=O)CN2C(=O)CCSc3ccc(S(=O)(=O)N4CCCC4)cc32)c(C)c1,inactive
5,CSc1ncccc1C(=O)OCC(=O)c1ccccc1,"inconclusive: 12.6 µM [activator, single point]"
6,COC(=O)c1sccc1NC(=O)NC1CCCCC1,"inconclusive: 17.8 µM [activator, partial curve]"
7,CC1CCN(c2nc(-c3ccc(Br)cc3)nc3ccccc23)CC1,"inconclusive: 35.5 µM [activator, single point]"
8,COc1ccccc1NC(=O)c1ccc(-c2ccccc2[N+](=O)[O-])o1,active: 31.6 µM
9,CCCC(=O)NC(NC1CCS(=O)(=O)C1)C(Cl)(Cl)Cl (stereo not drawn),"inconclusive: 1 µM [activator, full curve, poor fit]"
10,Cc1nn(Cc2ccc([N+](=O)[O-])cc2)c(=O)n1-c1ccccc1Cl,"inconclusive: 15.8 µM [activator, partial curve]"
11,Cc1ccc(/C=N/NC(=O)C2COc3ccccc3O2)s1 (stereo not drawn),"inconclusive: 11.2 µM [activator, partial curve]"
12,Cc1noc2ncnc(N3CCN(c4cccc(Cl)c4)CC3)c12,"inconclusive: 7.94 µM [activator, partial curve]"
13,CSc1ccc(C=NNc2ccc(S(=O)(=O)Nc3ccccc3C(=O)O)cc2[N+](=O)[O-])cc1,"inconclusive: 0.316 µM [activator, full curve]"
14,Cc1cccc(N2CCN(C(=O)c3nn(C)c4c3CS(=O)(=O)c3ccccc3-4)CC2C)c1 (stereo not drawn),"inconclusive: 8.91 µM [activator, partial curve] and inconclusive: 12.6 µM [activator, single point]"
15,O=[N+]([O-])c1cccc(NC(=S)N2CCc3ccccc32)c1,active: 12.6 µM
16,COc1ccc(C(=O)Nc2cccc(OC(=O)c3ccco3)c2)cc1,active: 17.8 µM
17,COc1ccc2c(c1)CCCC2NS(=O)(=O)OCC(Cl)(Cl)Cl (stereo not drawn),active: 35.5 µM
18,COC(=O)N/N=C/c1cccs1,"inconclusive: 20 µM [activator, partial curve]"
19,CSC1=NC2(CCN(C(=O)NC3CCCCC3)CC2)N=C1c1ccc(C(C)(C)C)cc1,inactive
20,Nc1c(C(=O)c2ccccc2)oc2ccccc12,"inconclusive: 14.1 µM [activator, single point]"
21,COc1ccc(CNC(=O)[C@@H]2CC=C[C@@H]3CCN(Cc4ccc(Cl)c(Cl)c4)C(=O)[C@@H]32)cc1,"inconclusive: 31.6 µM [activator, single point]"
22,COC(=O)[C@]12CCCCC=C1N(Cc1cccc3ccccc13)C(=O)[C@H](CC(=O)NCc1cccs1)C2,"inconclusive: 0.282 µM [activator, full curve, poor fit]"

# — PubChem BioAssay AID652104 (National Center for Advancing Translational Sciences (NCATS), 2013)
